B1: CPEB3 Ribozyme (parent)
chain: UAACAGGGGGCCACAGCAGAAGCGUUCACGUCGCAGCCCCUGUCAGAUUCUGGUGAAUCUGCGAAUUCUGCUGUAUAUCUC

The source gives no read counts; variants with many changes may rest on few reads.

The variants in this data set derive from B1. Kind of data set: self-cleavage, relative activity (ratio to wild type); higher = more cleavage; in vitro, sequencing. In short, it runs like this: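 Libraries of CPEB3 self-cleaving ribozyme mutants came from rounds of error-prone PCR and carried barcodes, which DNA sequencing matched to variants. In vitro transcription used T7 RNA polymerase at 37°C for 5 hours, with a further 15 min in DNase I before EDTA stopped the reaction; the ribozymes cleaved during both steps. The RNA was reverse transcribed with template switching and sequenced on Illumina. Relative activity is the cleaved/total read fraction of a variant divided by that of the unmutated ribozyme, averaged over three batches with at least 5 reads.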
In the case of A5G U69A U76A U78A, the self-cleavage was found to be 0.65.
In the case of A5U G8U C23A, the self-cleavage amounted to 0.05.
As for A5U A18U A57G, the self-cleavage is 0.28.
Next, A5U A13U U48C: 1.13.
Next, A5G G8A A28G A75G: 0.09.
Next, A5G U43G A64G: 0.24.
Regarding A5U A45U A77G, the self-cleavage came out at 0.75.
As for A5G U43A U80A, the self-cleavage came to 1.05.
For the variant A5G U31A G53U U69C, the self-cleavage worked out at 0.13.
Next, A5G G6U A21G A64G: 0.25; A5U G9A G30A A47G U54C: 0.42.
As for A5G U60A A64G U72A U80C, the figure is 0.15.
As for A5G U26A U31C U41A, the figure is 0.37.
For A5G U31A A45G A56G A77U, the self-cleavage amounted to 0.38.
On to A5G U67C U74C, for which the self-cleavage was 0.46.
Next, A5G G46A A56U: 0.14; A5U G6A A18U U26C U43A U80A: 0.06.
A5G U31C U48C U66C: the self-cleavage came to 0.47.
As for A5U C17G U25A A28G U31C U54C U72G, the figure is 0.14; as for A5G U43C U54C U67C U72C, 0.07; as for A5G U67C U72C, 0.56.
As to A5U C23G A35U U76A, the self-cleavage stood at 0.09.
Next, A5G G7A A13G G53A A56G: 0.34; A5G U72C U80C: 0.85.
Take A5U A13G U72A U78C: the self-cleavage turned out to be 0.98.
A5G U31C U41A A65G U72C: the self-cleavage turned out to be 0.08.
Next, A5G G24A A56U U60C: 0.21; A5U C11U A28G C79U: 0.37; A5U A18U G30A C32A U41A A45U: 0.2.
Next, A5U A56U C81U: 0.92; A5U C14U U60C U72C: 0.82; A5G C44U G55U A65G U69A: 0.3.
Next, A5G U41C A57G C59U A64U: 0.09; A5G C40U U74C: 0.8; A5G G10A C29A C39G C59G U80C: 0.05.
In the case of A5G C38U U41C A57G U72C, the self-cleavage stood at 0.19.
For A5U A13G A20G A35G A64U, the self-cleavage worked out at 0.15.
Next, A5G G19A U25C U31A G61U U72A U78C: 0.14; A5G G10U A15U A21U U43C U80C: 0.
As to A5U A28G A35G A75U U80C, the self-cleavage was 1.48.
Consider A5U G8A A20G A47G, for which the self-cleavage stood at 0.49.
Next, A5U A20G A35C C44A: 0.28.
As for A5G U26A A28G A45C U54C, the figure is 0.11.
Next, A5G U26A A35G A45C U49A U66C: 0.06; A5U G8U A45G A64G U80C: 0.08.
As to A5U A28G U60C U74C, the self-cleavage is 0.55.
As for A5U A18C U43C U51C U69A, the figure is 0.29; as for A5G C32U U43C U49C U51G U54C G70A, 0.26; as for A5U C29U U67C, 0.19.
As for A5G G42A A47U U67C, the figure is 0.2.
Next, A5G U49C U51A U60C: 0.15; A5G G30A U41C A47G: 0.36.
Consider A5U A13G U31C U49C C50U G55C A64G, for which the self-cleavage is 0.13.
Next, A5U A18U A28C U72C U74C C81A: 0.27.
Next, A5G U41C A56U A57G U66C: 0.04.
As for A5G U25C C39A U69A, the figure is 0.34; as for A5G U54A C62U, 0.29.
For the variant A5U A18U U54A A57G U78A U80C, the self-cleavage was 0.29.
Next, A5U A21U U49G U54A U60G: 0.08.
As for A5U A13G C29A U41C U78C, the figure is 0.18.
As for A5U A15G U25C A45U U74A C79A, the self-cleavage is 0.11.
As for A5G U48G A56G U66C U78A, the self-cleavage was found to be 0.35.
Next, A5U C62G U78C: 0.15; A5G U26C U48C U54A A75C: 0.33; A5U A13U A28G A35U A45G: 0.44.
Next, A5U A20G A21G A28G C32U U49C: 0.25; A5U A21G U43A U69C U72C: 0.18; A5U A13G U54C U72C: 0.72.
As for A5G U31C U58C A65G U69C U80G, the figure is 0.3.
For A5G G7C A45G, the self-cleavage is 0.12.
As for A5U G8U U43A U49C, the figure is 0.37; as for A5G C34A C50U, 0.38.
Consider A5U A35U U49C U51A U78G, for which the self-cleavage came to 0.31.
As for A5U A18U A21U A47U A57G, the figure is 0.06; as for A5G U49C C68A, 0.15.
Next, A5U C17A U43C A64G: 0.09; A5G C39A U41C G42A: 0.32.
Next, A5G U41A A47G A65G: 0.34; A5U G7A U31C A65G U72C U74C U80C: 0.03.
Consider A5G C38A A65G U67C, for which the self-cleavage was found to be 0.25.
Next, A5U G9U A28G U41A U49C U78C: 0.04; A5G U41A U60C: 0.26.
For the variant A5U A21G A47U A57U A64G, the self-cleavage worked out at 0.15.
A5U C12A U26A C40G U41C C50U A64G: the self-cleavage is 0.18.
